Test results from article PMC4738305, “Metabolism and Disposition of Aditoprim in Swine, Broilers, Carp and Rats” (Scientific Reports, 2016).
The source gives many values for each of these; only a part stands here.

Test: Tissue distribution and elimination of total radioactivity (total residues) after oral ^3H-ADP for 7 d
Assay type: in vivo
Conditions: broilers
Protocol: (0.1 Ci/g) through oral gavage for 7 consecutive days. All the animals were housed on the basis of their group in the cages or aquaria throughout the whole study period. A group of animals was slaughtered through exsanguination under diethyl ether inhalation of anesthesia in the period of 6 h, 1, 3, 7, 14, and 21 d after the administration. The blood samples were immediately collected into the heparinized tubes and was centrifuged at 1920 × g at 4 °C for 10 min to obtain the plasma. The tissues from the heart, liver, spleen, lung, kidney, craw (broilers), stomach, intestine, fat, skin, muscle, thymus, pancreas, bile, bladder, hair (scale for carp), genital gland, adrenal glands, swim bladder (carp), brain, lymph, and bursa (broilers) were carefully excised and collected. The tissues were thoroughly rinsed with the deionized water to remove the residuary blood, blotted to dryness, and finally to perform the homogenization. In order to avoid cross-contamination the dissecting instruments were washed during the tissue procurements. The blank tissues were collected in order to provide control matrices. The total radioactivity levels in each sample were determined through LSC. The samples extracted from the plasma, bile, and tissues of the liver, kidney, muscle, and fat/skin were analyzed through LC/MS-IT-TOF and v. ARC radiometric detection for metabolite profiling.
Measurements of the total radioactivity in each sample were conducted by Packard Tri-Carb 2900 TR liquid scintillation counter (PerkinElmer Life and Analytical Sciences). The detection time was 10 min for two cycles. The scintillation counter data were automatically corrected for counting efficiency by instrument-stored quench curve which was drawn with a series of sealed quenched […] standards. The actual radioactivity of each sample was calculated by subtracting the background value form the mean radioactivity in two blank samples. All the samples were analyzed in duplicate if the sample size allowed this. If the results were differed by more than 10% from the mean value, the samples were reanalyzed. The samples with LSC counts less than 2-fold of the level of the running background were considered to contain insufficient radioactivity for reliable quantification.
Aliquots of liquid samples (urine, plasma, bile and raised water, 200 μL) were mixed with 10 mL of Ultima Gold^TM scintillation fluid for the direct analysis by LSC. Aliquots of solid samples (feces and tissues, 200 mg) were digested overnight with 2 mL tissue solubilizer at 50 °C in a shaking water bath, followed by adding 200 μL of 0.1 mol/L EDTA-Na and 200 μL of 30% H2O2, and was bathed at 50 °C for 2 h to bleach. The obtained transparent liquid were mixed with 10 mL of scintillation fluid and finally were counted by LSC. The digestion efficiency was determined by using the blank samples spiked with ^3 H standard for digestion, and the measured radioactivity content in the digested samples were adjusted by using the digestion efficiency values.
The concentrations of ADP and/or its metabolites were analyzed by using the following equation: C = L/(2.22 × 10^9 × RM), where C is the concentration of ADP or/and its metabolites (mg/kg), L is the LSC count (dpm), R is the specific activity of the administered dose (0.1 Ci/g), and M is the weight or volume of samples (kg or L). The results are expressed as mean ± SD. The elimination kinetics of terminal phase for ADP and its metabolites were conducted by using the WinNonlin linear regression program (Pharsight corporation, Statistical consultants, Inc., Kentucky, USA).

[3H]c1c(Cc2cnc(N)nc2N)cc(OC)c(N(C)C)c1OC [^3H-ADP]
Concentrations of total residues (Bile, time 0.25, 5 mg/kg b.w. 7 days): 25.15 ± 8.55 mg/kg
Concentrations of total residues (Bile, time 1, 5 mg/kg b.w. 7 days): 11.46 ± 1.16 mg/kg
Concentrations of total residues (Bile, time 3, 5 mg/kg b.w. 7 days): 3.96 ± 1.06 mg/kg
Concentrations of total residues (Bile, time 7, 5 mg/kg b.w. 7 days): 0.25 ± 0.08 mg/kg
Concentrations of total residues (Blood, time 0.25, 5 mg/kg b.w. 7 days): 0.77 ± 0.16 mg/kg
Concentrations of total residues (Blood, time 1, 5 mg/kg b.w. 7 days): 0.42 ± 0.06 mg/kg
Concentrations of total residues (Blood, time 3, 5 mg/kg b.w. 7 days): 0.16 ± 0.03 mg/kg
Concentrations of total residues (Blood, time 7, 5 mg/kg b.w. 7 days): 0.06 ± 0.01 mg/kg
Concentrations of total residues (Brain, time 0.25, 5 mg/kg b.w. 7 days): 2.07 ± 0.54 mg/kg
Concentrations of total residues (Brain, time 1, 5 mg/kg b.w. 7 days): 1.02 ± 0.28 mg/kg
Concentrations of total residues (Brain, time 3, 5 mg/kg b.w. 7 days): 0.44 ± 0.05 mg/kg
Concentrations of total residues (Brain, time 7, 5 mg/kg b.w. 7 days): 0.06 ± 0.01 mg/kg
Concentrations of total residues (Bursa of Fabricius, time 0.25, 5 mg/kg b.w. 7 days): 9.62 ± 1.43 mg/kg
Concentrations of total residues (Bursa of Fabricius, time 1, 5 mg/kg b.w. 7 days): 4.20 ± 0.86 mg/kg
Concentrations of total residues (Bursa of Fabricius, time 3, 5 mg/kg b.w. 7 days): 0.51 ± 0.09 mg/kg
Concentrations of total residues (Bursa of Fabricius, time 7, 5 mg/kg b.w. 7 days): 0.10 ± 0.01 mg/kg
Concentrations of total residues (Bursa of Fabricius, time 14, 5 mg/kg b.w. 7 days): 0.01 ± 0.00 mg/kg
Concentrations of total residues (Heart, time 0.25, 5 mg/kg b.w. 7 days): 2.27 ± 0.52 mg/kg
Concentrations of total residues (Heart, time 1, 5 mg/kg b.w. 7 days): 0.81 ± 0.25 mg/kg
Concentrations of total residues (Heart, time 3, 5 mg/kg b.w. 7 days): 0.23 ± 0.03 mg/kg
Concentrations of total residues (Heart, time 7, 5 mg/kg b.w. 7 days): 0.08 ± 0.00 mg/kg
Concentrations of total residues (Heart, time 14, 5 mg/kg b.w. 7 days): 0.01 ± 0.00 mg/kg
Concentrations of total residues (Kidney, time 0.25, 5 mg/kg b.w. 7 days): 23.54 ± 3.83 mg/kg
Concentrations of total residues (Kidney, time 1, 5 mg/kg b.w. 7 days): 11.04 ± 2.65 mg/kg
Concentrations of total residues (Kidney, time 3, 5 mg/kg b.w. 7 days): 1.70 ± 0.28 mg/kg
Concentrations of total residues (Kidney, time 7, 5 mg/kg b.w. 7 days): 0.21 ± 0.00 mg/kg
Concentrations of total residues (Kidney, time 14, 5 mg/kg b.w. 7 days): 0.06 ± 0.00 mg/kg
Concentrations of total residues (Liver, time 0.25, 5 mg/kg b.w. 7 days): 13.31 ± 1.98 mg/kg
Concentrations of total residues (Liver, time 1, 5 mg/kg b.w. 7 days): 3.05 ± 0.66 mg/kg
Concentrations of total residues (Liver, time 3, 5 mg/kg b.w. 7 days): 1.55 ± 0.21 mg/kg
Concentrations of total residues (Liver, time 7, 5 mg/kg b.w. 7 days): 0.63 ± 0.03 mg/kg
Concentrations of total residues (Liver, time 14, 5 mg/kg b.w. 7 days): 0.16 ± 0.02 mg/kg
Concentrations of total residues (Lung, time 0.25, 5 mg/kg b.w. 7 days): 11.41 ± 1.91 mg/kg
Concentrations of total residues (Lung, time 1, 5 mg/kg b.w. 7 days): 3.27 ± 0.25 mg/kg
Concentrations of total residues (Lung, time 3, 5 mg/kg b.w. 7 days): 0.59 ± 0.05 mg/kg
Concentrations of total residues (Lung, time 7, 5 mg/kg b.w. 7 days): 0.08 ± 0.00 mg/kg
Concentrations of total residues (Maw, time 0.25, 5 mg/kg b.w. 7 days): 7.77 ± 1.06 mg/kg
Concentrations of total residues (Maw, time 1, 5 mg/kg b.w. 7 days): 1.46 ± 0.64 mg/kg
Concentrations of total residues (Maw, time 3, 5 mg/kg b.w. 7 days): 0.25 ± 0.03 mg/kg
Concentrations of total residues (Maw, time 7, 5 mg/kg b.w. 7 days): 0.05 ± 0.01 mg/kg
Concentrations of total residues (Muscle, time 3, 5 mg/kg b.w. 7 days): 0.14 ± 0.02 mg/kg
Concentrations of total residues (Muscle, time 7, 5 mg/kg b.w. 7 days): 0.06 ± 0.01 mg/kg
Concentrations of total residues (Pancreas, time 0.25, 5 mg/kg b.w. 7 days): 11.41 ± 3.46 mg/kg
Concentrations of total residues (Pancreas, time 1, 5 mg/kg b.w. 7 days): 2.55 ± 0.56 mg/kg
Concentrations of total residues (Pancreas, time 3, 5 mg/kg b.w. 7 days): 0.49 ± 0.04 mg/kg
Concentrations of total residues (Pancreas, time 7, 5 mg/kg b.w. 7 days): 0.07 ± 0.01 mg/kg
Concentrations of total residues (Spleen, time 0.25, 5 mg/kg b.w. 7 days): 14.03 ± 3.12 mg/kg
Concentrations of total residues (Spleen, time 1, 5 mg/kg b.w. 7 days): 3.08 ± 0.51 mg/kg
Concentrations of total residues (Spleen, time 3, 5 mg/kg b.w. 7 days): 0.62 ± 0.02 mg/kg
Concentrations of total residues (Spleen, time 7, 5 mg/kg b.w. 7 days): 0.10 ± 0.01 mg/kg
Concentrations of total residues (Spleen, time 14, 5 mg/kg b.w. 7 days): 0.03 ± 0.02 mg/kg
